# Measured values published in PubChem BioAssay AID686979 (National Center for Advancing Translational Sciences (NCATS), 2013).
# Values joined by “and” are separate entries in the source; they are usually repeats but may differ in a detail not shown here. Equal values may be shown once. Screen size: about 420,000 compounds; about 50,000 (12%) were called active. Inconclusive results, whose numbers are uncertain, are shown with a selection of clear calls. The call rests on the fitted dose curve; in most records, active means well fitted inhibition curve with a large enough effect; inconclusive means small, poorly fitted or top-dose-only effect; inactive means flat fitted curve, though single readings scatter. Potencies of inconclusive entries are left out as doubtful fits. More than one record can exist for a structure, and the calls need not agree.
# Experiment: qHTS for Inhibitors of human tyrosyl-DNA phosphodiesterase 1 (TDP1): qHTS in cells in presence of CPT; further: nearly all actives have a fitted effect of over 55% in size
# Details: chicken DT40 Tdp1-/-;hTDP1 cells + 20 nM CPT, ATP luminescence, 48 h; activity change, negative = growth inhibition: at 46.2 µM (top of the series) unless noted
# Method in brief: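 Chicken DT40 Tdp1-/- cells complemented with human TDP1, 400 cells/well, exposed to compounds plus 20 nM camptothecin for at least 48 h at 37 C; viability read as ATP content by CellTiter-Glo luminescence.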
# On the % scale 0 is the no-effect control and ±100 the full control effect; potency means the concentration at half of the fitted maximal effect; tags describe the fitted curve by direction and shape.
Structure (SMILES),Potency,"activity change, negative = growth inhibition"
O=C(OCCCc1cc2ccccc2c(=O)o1)c1ccccc1C(F)(F)F,"inconclusive [inhibitor, single point]",–
COc1cc(-c2noc(-c3ccc(NCc4ccco4)c([N+](=O)[O-])c3)n2)cc(OC)c1OC,active: 11.6 µM,–
O=C(O)c1cn(-c2ccc(F)cc2)c(=O)c2ccccc12,–,inactive: 41.4%
Cc1oc2ccc(O)c(CN3CCCCC3)c2c1C(=O)Nc1cccc(C(F)(F)F)c1,active: 11.6 µM,–
CC(C)(C)OC(=O)N1CCN(C(=O)c2[nH]cnc2C(=O)Nc2cccc(Cl)c2)CC1,–,inconclusive: -34.2% [inhibitor]
Cc1cc(C)c(NC(=O)CN2C(=O)NC3(CCCc4ccccc43)C2=O)c(Cl)c1 (centres undefined),"inconclusive [inhibitor, single point]",–
Cc1ccc(-n2ncc(C(=O)Nc3ccc4c(c3)OCO4)c2C2CCN(C(=O)OC(C)(C)C)CC2)c(C)c1,"inconclusive [inhibitor, single point]",–
COc1ccc(NC(=O)COC(=O)c2ccc(OC)c(S(=O)(=O)N3CCCC3)c2)cc1OC,"inconclusive [inhibitor, single point]",–
CCN(CC)S(=O)(=O)c1cc(C)ccc1SC,–,inactive: -11.7%
COc1ccc(-c2nc3c(-c4ccc(F)cc4)cnn3cc2C)cc1F,active: 23.1 µM,–
CN(CC(=O)Nc1ccccc1Br)C(=O)c1cccc(S(=O)(=O)N2CCc3ccccc32)c1,"inconclusive [inhibitor, single point]",–
COc1cccc(-c2ccc3ncnc(NCc4cnc(C)cn4)c3c2)c1,active: 23.1 µM,–
CCCCNC(=O)C1CC(c2c(Cl)cccc2Cl)=NO1 (centres undefined),active: 9.2 µM,–
Cc1ccc(NC(=O)CN2C(=O)N/C(=C/c3cccn3-c3ccc(C(=O)O)cc3)C2=O)cc1,–,inactive: -3.61%
CCOc1cc(N2CCOCC2)c(OCC)cc1NC(=O)CN1CCC(Cc2ccccc2)CC1,active: 23.1 µM,–
O=C(Nc1ccc2c(c1)OCO2)C1Cc2c(-c3ccccc3Oc3ccccc3)ccnc2O1 (centres undefined),"inconclusive [inhibitor, single point]",–
O=C(c1cccc(Br)c1)c1coc2ccc(O)cc12,"inconclusive [inhibitor, single point]",–
CCOC(=O)c1c(NC(=O)c2c(Br)cnn2CC)sc(C)c1C,"inconclusive [inhibitor, single point]",–
CCc1ccccc1OCC(=O)N1CCN(c2ncccn2)CC1,"inconclusive [inhibitor, single point]",–
c1ccc(Nc2ncncc2-c2ccoc2)cc1,"inconclusive [inhibitor, single point]",–
S=c1[nH]cc(-c2ccc(Cl)cc2)n1-c1ccccc1,"inconclusive [inhibitor, single point]",–
Cc1cn2c(=O)cc(COc3ccc(NC(=O)c4ccccc4C)cc3)nc2s1,–,inactive: -10%
OCC1OC(n2cnc3c(/C=C(\O)c4ccccc4)ncnc32)C(O)C1O (centres undefined),active: 1.3 µM,–
COc1ccc(C)cc1NC(=O)CSc1nnc(COc2ccccc2)n1Cc1ccco1,active: 16.4 µM,–
COCc1c(C(=O)OCC(=O)c2c(N)n(CC(C)C)c(=O)n(C)c2=O)oc2ccccc12,active: 18.4 µM,–

Structure (SMILES),Potency,"activity change, negative = growth inhibition"
C[C@H]1CN=C(N(C)C)N1CCC1CCCC1,"inconclusive [inhibitor, single point]",–
COc1ccccc1-c1nc(SCc2ccccn2)n[nH]1,–,inactive: -1.52%
CCC(C)(C(=O)NC1CCCC1)N(Cc1cccs1)C(=O)c1ccc2c(c1)OCO2 (centres undefined),active: 18.4 µM,–
O=C(CSc1nc2ccccc2c(=O)n1Cc1ccco1)c1ccc(F)cc1,active: 11.6 µM,–
CCOC(=O)c1nc(Nc2ccccc2OC)c2ccccc2n1,active: 11.6 µM,–
Cc1nc(-c2ccc(S(=O)(=O)N3CCN(c4cccc(C)c4C)CC3)cc2)co1,"inconclusive [inhibitor, single point]",–
COc1ccc(NC(=O)C[C@H]2C(=O)N(c3ccc(Br)cc3)C[C@@H]2c2ccc(OC)cc2)cc1,"inconclusive [inhibitor, single point]",–
CCCOc1ccc(-c2nc(N3CCCCC3)c3ccccc3n2)cc1,–,inactive: -4.62%
Cc1nn(C)c2c1c(C(F)(F)F)cc(=O)n2CC(=O)N1CCCCC1C (centres undefined),"inconclusive [inhibitor, single point]",–
Cc1ccc(Cl)cc1N1CCN(CC(=O)NC2CCCc3ccccc32)CC1 (centres undefined),"inconclusive [inhibitor, single point]",–
CCCCN(CC)C(=O)c1cc2c(=O)n3ccccc3nc2n1C,"inconclusive [inhibitor, single point]",–
Cc1ccc(CNC(=O)CCS(=O)(=O)c2ccc(Br)s2)o1,"inconclusive [inhibitor, single point]",–
O=C1CN(S(=O)(=O)c2cc(Cl)ccc2Cl)CCN1,–,inactive: 3.11%
CC1=NC(C(F)(F)F)(C(F)(F)F)C(C#N)=C(C)N1,"inconclusive [inhibitor, partial curve, poor fit]",–
O=C(c1ccc(Cl)cc1)N1CCN(c2ccnc3cc(Cl)ccc23)CC1,"inconclusive [inhibitor, single point]",–
CCOc1ccc(-c2cc(C(=O)Nc3ccc(F)cc3)[nH]n2)c(C)c1,–,inactive: -11.1%
COc1ccc(S(=O)(=O)Oc2ccc(C(=S)N3CCOCC3)cc2OC)cc1,"inconclusive [inhibitor, single point]",–
COc1cc2[nH]c(=O)n(Cc3ccc(C(=O)N4CCN(c5cc(Cl)ccc5C)CC4)cc3)c(=O)c2cc1OC,active: 2.31 µM,–
COc1ccc(O)c(C(=O)c2cc(C#N)c(=O)n(Cc3ccccc3)c2)c1,"inconclusive [inhibitor, partial curve, poor fit]",–
CCN(CC(=O)Nc1ccc(OC)cc1)C(=O)CSCC(=O)Nc1cc(C)on1,–,inactive: -3.25%
COc1ccc(N(Cc2cccs2)C(=O)c2ccc(C(C)(C)C)cc2)cc1,"inconclusive [inhibitor, single point]",–
CSc1nc(Cc2ccccc2)nc2ccccc12,–,inactive: -23.3%
FC(F)(F)c1ccccc1-c1nc(Nc2ccncc2)c2ccccc2n1,"inconclusive [inhibitor, single point]",–
COc1cc(S(=O)(=O)NCCc2ccc3c(c2)OCO3)ccc1-n1cnnn1,–,inactive: -23.7%
CCOC(=O)CSc1nc2ccc(NC(C)=O)cc2s1,–,inactive: -0.87%

Structure (SMILES),Potency,"activity change, negative = growth inhibition"
CCNC(=S)NNC(=O)c1cc(-c2cccc(C)c2)nc2ccccc12,active: 20.6 µM,–
C=CCn1nc(-c2ccccc2)c(N2CCCCC2)cc1=O,"inconclusive [inhibitor, single point]",–
O=C(Cn1cnc2c(oc3ccccc32)c1=O)Nc1ccc(OC(F)(F)F)cc1,–,inactive: -14.7%
Cc1cc(C(=O)NC2CCCN(Cc3ccc(Cl)cc3)C2)c(C)o1 (centres undefined),"inconclusive [inhibitor, single point]",–
COc1ccc(S(=O)(=O)NCC2CCCN(Cc3ccccc3Cl)C2)cc1 (centres undefined),"inconclusive [inhibitor, partial curve, poor fit]",–
N#Cc1cccc(NC(=O)CN2C(=O)NC3(CCCCCC3)C2=O)c1,–,inactive: -26.9%
Cc1[nH]n(-c2ccccc2)c(=O)c1/C=N/NC(=O)c1ccoc1C,active: 1.46 µM,–
O=C1/C(=C\c2ccccc2)CN(C(=O)CCN2CCCCC2)C/C1=C/c1ccccc1,active: 1.3 µM,–
COc1cc2c(cc1OC)C(c1ccncc1)CC(=O)N2 (centres undefined),–,inactive: 3.17%
O=C(NCc1cc(Cl)cc(Cl)c1)c1csc([C@@H]2O[C@H](CO)[C@H](O)[C@H](O)[C@H]2O)n1,–,inactive: -21.7%
CCc1ccc(C(=O)NC(=S)Nc2ccc3c(c2)OCCO3)cc1,"inconclusive [inhibitor, single point]",–
CC(C)(C)c1ccc(S(=O)(=O)c2cn(CC(=O)Nc3ccccc3)c3ccccc3c2=O)cc1,"inconclusive [inhibitor, single point]",–
Cc1ccccc1-n1c(C)cc(/C=N/Nc2ccc([N+](=O)[O-])cn2)c1C,active: 25.9 µM,–
Cc1cccc(CCNC(=O)c2cnc3c(C)cccn3c2=O)c1,–,inactive: -25.6%
CCc1ccccc1NC(=O)N[C@H](C(=O)O)C(C)CC (some centres undefined),"inconclusive [inhibitor, single point]",–
CCOc1ccccc1N(CC(=O)N1CCC(C)CC1)S(=O)(=O)c1ccc(C)cc1,active: 9.2 µM,–
CCn1c(SCc2ccc(F)cc2Cl)nnc1-c1nonc1NC(C)=O,active: 16.4 µM,–
CC(C)NC(=O)c1sc2c(c1C(=O)Nc1cccnc1)CCCC2,"inconclusive [inhibitor, single point]",–
O=S1(=O)CCO[C@H]2Cc3ccccc3[C@H]2N1Cc1ccccc1F,inactive and active: 23.1 µM,–
CCN1CCN(C(=O)Nc2ccccc2OC)CC1,"inconclusive [inhibitor, full curve, poor fit]",–
O=C(CC[C@H]1O[C@@H](n2ccc(=O)[nH]c2=O)[C@H](O)[C@@H]1O)N[C@H](Cc1ccccc1)C(=O)NCc1cccs1,–,inactive: 0.302%
Cc1cc(C)c(NC(=O)Cn2ccn(-c3cccc(Cl)c3)c(=O)c2=O)c(C)c1,"inconclusive [inhibitor, single point]",–
Cc1c(C)c2ccc(OCC(=O)N(C)C)c(C)c2oc1=O,–,inactive: 1.01%
O=C(CSc1nnc(C2CC2)n1C1CC1)c1cccs1,–,inactive: 0.851%
